For orientation: pIC50 means the negative decadic logarithm of the IC50, by convention in mol/L.

These results are taken from patent publication US20250163048A1 (Tango Therapeutics, Inc., priority 2022, published 2025).

SMILES strings stand for the structures. pIC50: −log10 of the molar value.

The test system of assay [1] is HAP1 MTAP-deleted cell line. As to the kind of experiment: SDMA in-cell western assay, HAP1 MTAP-deleted.
The test system of another assay is MTAP-deleted cell line. The assay can be described thus: viability assay for the MTAP-deleted cell line. The assay is classed as cell-based. Particulars: Homo sapiens, HAP1, viability assay.
The subject of assay [2] is HAP1 MTAP-intact cell line. The assay can be described thus: SDMA in-cell western assay, HAP1 MTAP-intact. The following applies: Homo sapiens, HAP1, read-out: Hap1 MTAP intact IC50.

`C[C@H]1CC[C@H](c2ccc3sc(C4CN(C)C4)nc3c2)N(C(=O)C(=O)Nc2cncc3c(N)nccc23)C1` [Compound 53, N-(8-amino-2,7-naphthyridin-4-yl)-2-((2R,5S)-5-methyl-2-(2-(1-methylazetidin-3-yl)benzo[d]thiazol-5-yl)piperidin-1-yl)-2-oxoacetamide]: the “Hap1 MTAP intact/deleted ratio” value in assay [1] (IC50 ratio between HAP1 MTAP-intact and HAP1 MTAP-deleted cell line, SDMA in-cell western) is listed as “A (“A” indicates an IC50 ratio greater than or equal to 30 fold)”. The pIC50 in the assay with MTAP-deleted cell line was more than 7.00.

`[2H]C([2H])([2H])N1CCC(c2nc3cc([C@H]4CC[C@H](C)CN4C(=O)C(=O)Nc4cncc5cn[nH]c45)ccc3s2)CC1` (racemic) [Compound 119, 2-oxo-N-(1H-pyrazolo[4,3-c]pyridin-7-yl)-2-[rac-(5S)-5-methyl-2-[2-[1-(trideuteriomethyl)-4-piperidyl]-1,3-benzothiazol-5-yl]-1-piperidyl]acetamide]: the pIC50 in assay [1] (Homo sapiens, HAP1, read-out: Hap1 MTAP deleted IC50, SDMA in-cell western, HAP1 MTAP-deleted cell line) was more than 8.30; in assay [2] it was 7.30 to 8.30.
